This is one part of the list. At the low end of the ranking the order means little.

In this test the target is GST-SBP-SLBP (stem-loop binding protein) (UniProt Q14493). Briefly: targeted RNA Bind-n-Seq.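 Note: DESeq read counts versus GST-SBP nonspecific binding control pulldown.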 The settings on record: RBNS binding buffer: 25 mM Tris pH 7.5, 150 mM KCl, 3 mM MgCl2, 0.1% Tween, 0.5 mg/mL BSA, 1 mM DTT; 27 nM protein, 750 pM RNA pool; temperature not stated; high values mean tight binding.
For the sequence “GGUCACGUCUCAAUCAACUCAAUCUCAGGAGUUUACUCCUGCAUUCUCAACAGCUCGCAGUCAAG”, the binding signal (log2 fold change) was 0.2. Regarding “GGUCACGUCUCAAUCAACUCAUCUCCAGGAGUUUCCUCCUGUUAAUUCAACAGCUCGCAGUCAAG”, the binding signal (log2 fold change) is 0.0425. In the case of “GGUCACGUCUCAAUCAACUCAUCCCCAGGAGUUUACUCCUGUAUUCUCAACAGCUCGCAGUCAAG” it was -0.00768.

On to “GGUCACGUCUCAAUCAACUCAAUAGAGGGGGGGAAAACCCCUUUACCCUCAACUUCAACAGCUCGCAGUCAAG”, for which the binding signal (log2 fold change) is -0.15. As for “GGUCACGUCUCAAUCAACUCUAUCUCAGGAGUUUACUCCUGUAUUUUCAACAGCUCGCAGUCAAG”, the figure is 0.102; as for “GGUCACGUCUCAAUCAACUCUUUUCCCAGGGAAAACCCUGGCAAUGUCAACAGCUCGCAGUCAAG”, -0.112. In the case of “GGUCACGUCUCAAUCAACUCUACUCCCAGGGAAACCCCUGGUUUAUUCAACAGCUCGCAGUCAAG” it was -0.277. “GGUCACGUCUCAAUCAACUCUAAAGAGGGGGGGAAAACCCCUUUACCCUCAUCGUCAACAGCUCGCAGUCAAG”: the binding signal (log2 fold change) amounted to 0.0826. “GGUCACGUCUCAAUCAACUCAAUCUCCAGGGAAACCCCUGGCUUUUUCAACAGCUCGCAGUCAAG”: the binding signal (log2 fold change) was 0.107. With “GGUCACGUCUCAAUCAACUCUUUCUCCAGGGAAAACCCUGGUAUAUUCAACAGCUCGCAGUCAAG”, the binding signal (log2 fold change) is -0.0236.

In the case of “GGUCACGUCUCAAUCAACUCUUUCUCAGGAGUUUCCUCCUGCUUUUUCAACAGCUCGCAGUCAAG”, the binding signal (log2 fold change) was found to be 0.0194. As for “GGUCACGUCUCAAUCAACUCAUUUUCCAGGGAAACCCCUGGCGUAUUCAACAGCUCGCAGUCAAG”, the figure is -0.0822; as for “GGUCACGUCUCAAUCAACUCUAUCUCCAGGGAAAGCCCUGGCAAUGUCAACAGCUCGCAGUCAAG”, -0.0105. In the case of “GGUCACGUCUCAAUCAACUCUACUUCAGGAGUUUACUCCUGCAUUUUCAACAGCUCGCAGUCAAG”, the binding signal (log2 fold change) was -0.0382. In the case of “GGUCACGUCUCAAUCAACUCUACUUCCAGGGAAACCCCUGGUAAUUUCAACAGCUCGCAGUCAAG” it was 0.157. “GGUCACGUCUCAAUCAACUCUUUUUCCAGGGAAAGCCCUGGUUAUGUCAACAGCUCGCAGUCAAG”: the binding signal (log2 fold change) was determined as 0.238. Consider “GGUCACGUCUCAAUCAACUCUUUCUCCAGGGAAAACCCUGGUAUACUCAACAGCUCGCAGUCAAG”, for which the binding signal (log2 fold change) came to 0.0398. Consider “GGUCACGUCUCAAUCAACUCAUAAGAGGGGGGGAAAACCCCUUUGCCCUCAACCUCAACAGCUCGCAGUCAAG”, for which the binding signal (log2 fold change) is -0.32. As for “GGUCACGUCUCAAUCAACUCAUCCCCCAGGGAAAUCCCUGGCUUACUCAACAGCUCGCAGUCAAG”, the figure is 0.468; as for “GGUCACGUCUCAAUCAACUCUUCUCCCAGGGAAACCCCUGGUUAACUCAACAGCUCGCAGUCAAG”, 0.0809. On to “GGUCACGUCUCAAUCAACUCUUCUUCCAGGGAAACCCCUGGCAAUGUCAACAGCUCGCAGUCAAG”, for which the binding signal (log2 fold change) was -0.25. In the case of “GGUCACGUCUCAAUCAACUCAUCUCCCAGGGAAAACCCUGGCAAAUUCAACAGCUCGCAGUCAAG” it was -0.0157; in that of “GGUCACGUCUCAAUCAACUCAAUCGAGGGGGGGAAAACCCCUUUGCCCUCACUAUCAACAGCUCGCAGUCAAG”, 0.0533; in that of “GGUCACGUCUCAAUCAACUCAUCCGAGGGGGGGAAAACCCCUUUACCCUCAAUAUCAACAGCUCGCAGUCAAG”, -0.338. As for “GGUCACGUCUCAAUCAACUCAUUUUCAGGAGUUUUCUCCUGCAAACUCAACAGCUCGCAGUCAAG”, the figure is -0.0487. In the case of “GGUCACGUCUCAAUCAACUCCCAAGAGGGGGGGAAAACCCCUUUACCCUCGUUUUCAACAGCUCGCAGUCAAG” it was -0.00957; in that of “GGUCACGUCUCAAUCAACUCAUCGCCCAGGGAAAGCCCUGGUUAUCUCAACAGCUCGCAGUCAAG”, -0.0203; in that of “GGUCACGUCUCAAUCAACUCUACUCCAGGAGUUUCCUCCUGCUUUUUCAACAGCUCGCAGUCAAG”, -0.182. Regarding “GGUCACGUCUCAAUCAACUCAUCAGAGGGGGGGAAAACCCCUUUACCCUCAAAAUCAACAGCUCGCAGUCAAG”, the binding signal (log2 fold change) was -0.349.

Regarding “GGUCACGUCUCAAUCAACUCUUUAGAGGGGGGGAAAACCCCUUUACCCUCAAUUUCAACAGCUCGCAGUCAAG”, the binding signal (log2 fold change) is -0.226. As for “GGUCACGUCUCAAUCAACUCAGUCUCCAGGGAAAACCCUGGCUUUUUCAACAGCUCGCAGUCAAG”, the figure is -0.00561; as for “GGUCACGUCUCAAUCAACUCAUCUUCCAGGGAAAGCCCUGGCGUAUUCAACAGCUCGCAGUCAAG”, -0.0103; as for “GGUCACGUCUCAAUCAACUCUACGCCAGGAGUUUACUCCUGUAAUUUCAACAGCUCGCAGUCAAG”, 0.0688. As for “GGUCACGUCUCAAUCAACUCAGUCUCCAGGGAAACCCCUGGUAUUUUCAACAGCUCGCAGUCAAG”, the figure is -0.104. “GGUCACGUCUCAAUCAACUCACUAGAGGGGGGGAAAACCCCUUUACCCUCAAACUCAACAGCUCGCAGUCAAG”: the binding signal (log2 fold change) is -0.0184. As for “GGUCACGUCUCAAUCAACUCUUCAGAGGGGGGGAAAACCCCUUUGCCCUCCACAUCAACAGCUCGCAGUCAAG”, the figure is 0.0713; as for “GGUCACGUCUCAAUCAACUCUACUUCAGGAGUUUCCUCCUGUUUUCUCAACAGCUCGCAGUCAAG”, -0.16; as for “GGUCACGUCUCAAUCAACUCCCAAGAGGGGGGGAAAACCCCUUUGCCCUCACACUCAACAGCUCGCAGUCAAG”, -0.329. On to “GGUCACGUCUCAAUCAACUCCCAAGAGGGGGGGAAAACCCCUUUGCCCUCAAUAUCAACAGCUCGCAGUCAAG”, for which the binding signal (log2 fold change) was -0.357. As to “GGUCACGUCUCAAUCAACUCAAUUUCCAGGGAAAACCCUGGCAUUCUCAACAGCUCGCAGUCAAG”, the binding signal (log2 fold change) is -0.0923. In the case of “GGUCACGUCUCAAUCAACUCUUCUCCCAGGGAAAGCCCUGGCAAUCUCAACAGCUCGCAGUCAAG” it was 0.126. As for “GGUCACGUCUCAAUCAACUCAAUCUCCAGGGAAAGCCCUGGUAAACUCAACAGCUCGCAGUCAAG”, the figure is -0.143. Take “GGUCACGUCUCAAUCAACUCCUUAGAGGGGGGGAAAACCCCUUUGCCCUCAACAUCAACAGCUCGCAGUCAAG”: the binding signal (log2 fold change) was found to be 0.411. In the case of “GGUCACGUCUCAAUCAACUCUACGGAGGGGGGGAAAACCCCUUUACCCUCACUAUCAACAGCUCGCAGUCAAG” it was -0.165. Turning to “GGUCACGUCUCAAUCAACUCUAGUCCCAGGGAAAACCCUGGCAUAUUCAACAGCUCGCAGUCAAG”, the binding signal (log2 fold change) came to 0.133. On to “GGUCACGUCUCAAUCAACUCAACAGAGGGGGGGAAAACCCCUUUACCCUCACCUUCAACAGCUCGCAGUCAAG”, for which the binding signal (log2 fold change) was found to be 0.0589. As for “GGUCACGUCUCAAUCAACUCAAUUCCCAGGGAAAACCCUGGCUUUUUCAACAGCUCGCAGUCAAG”, the figure is 0.00495.

(Values after article PMC5892938.)
